{
  "source": "PubChem BioAssay AID485313",
  "about": "(National Center for Advancing Translational Sciences (NCATS), 2010)",
  "note": "The whole screen tested about 320,000 compounds, of which about 7,600 (2.4%) were called active. Inconclusive results, whose numbers are uncertain, are shown with a selection of clear calls. The call rests on the fitted dose curve; in most records, active means well fitted activation curve with a large enough effect; inconclusive means small, poorly fitted or top-dose-only effect; inactive means no such curve, though single readings can be large or run the other way. Potencies of inconclusive entries are left out as doubtful fits. Potency means the concentration at half of the fitted maximal effect; tags describe the fitted curve by direction and shape.",
  "data": [
    {"experiment": "qHTS Assay for NPC1 Promoter Activators; further: nearly all actives have a fitted effect of over 60% in size;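 on activation: reporter is driven by a mutant NPC1 promoter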", "settings": "Huh7 NPC1 promoter luciferase reporter, 24 h; series mostly up to 9.22 µM", "in_short": "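Huh7 cells stably carrying NPC1 promoter–luciferase, plated in Opti-MEM with 10% FBS for 2 h, were exposed to compound in DMSO for 24 h at 37 °C; luciferase reagent was added for 10 min and luminescence read.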", "values": [
      {"smiles": "CCN1CCCC1CNC(=O)c1ccc2c(c1)NC(=O)/C(=C\\c1ccc(C)cc1)S2", "note": "(stereo unspecified)", "Potency": "inactive"},
      {"smiles": "O=C(NCc1cccs1)c1nc(-c2cccs2)no1", "Potency": "inconclusive [activator, single point]"},
      {"smiles": "O=C(Nc1ccc(N2CCOCC2)c(Cl)c1)c1cccnc1", "Potency": "inactive"},
      {"smiles": "CC(C)(C)C1CCc2c(sc(NC(=O)c3cccs3)c2C(N)=O)C1", "note": "(stereo unspecified)", "Potency": "inconclusive [activator, partial curve]"},
      {"smiles": "COC(=O)c1sc2nc3c(cc2c1N)CCCC3", "Potency": "active: 1.41 µM"},
      {"smiles": "COc1cc(OC)cc(C(=O)NNC(=O)c2ccccn2)c1", "Potency": "inactive"},
      {"smiles": "CN(C)c1ccc(/C=C/C(=O)c2ccccc2O)cc1", "Potency": "active: 3.55 µM"},
      {"smiles": "CCN(CC)c1ccc(NC(=S)NC(=O)c2ccco2)cc1", "Potency": "inconclusive [activator, partial curve]"},
      {"smiles": "Cc1nnc(SCC(=O)NC(=O)Nc2ccc3c(c2)OCCO3)n1N", "Potency": "inconclusive [activator, partial curve]"},
      {"smiles": "Fc1ccccc1-c1csc(-c2cccnc2)n1", "Potency": "inconclusive [activator, partial curve]"},
      {"smiles": "CCN1CCN(C(=O)N[C@@H](C(=O)N[C@@H]2C(=O)N3C(C(=O)O)=C(CSc4nnnn4C)CS[C@H]23)c2ccc(O)cc2)C(=O)C1=O", "Potency": "inactive"},
      {"smiles": "Cc1ccc(N2CC(C(=O)Nc3c(C)n(C)n(-c4ccccc4)c3=O)CC2=O)cc1", "note": "(stereo unspecified)", "Potency": "inactive"},
      {"smiles": "O=C(COc1ccccc1Cl)c1ccc2c(c1)CCCC2", "Potency": "inconclusive [activator, partial curve]"},
      {"smiles": "N#Cc1nc(Nc2cc(F)cc(F)c2)c2ncn(CC(F)F)c2n1", "Potency": "inconclusive [activator, partial curve]"},
      {"smiles": "COc1ccc(-c2onc3ccc(C(C)=O)cc23)cc1", "Potency": "inconclusive [activator, single point]"},
      {"smiles": "O=C(CSc1nc2ccccc2[nH]1)NCc1ccccc1", "Potency": "inactive"},
      {"smiles": "CC(=O)Nc1ccc2nc(-c3cccs3)[nH]c2c1", "Potency": "inconclusive [activator, partial curve]"},
      {"smiles": "Cc1cc(NC(=O)CSc2nc3ccccc3cc2C#N)no1", "Potency": "inconclusive [activator, partial curve]"},
      {"smiles": "COc1cccc(CN2CCN(CC(=O)Nc3ccccc3Cl)CC2)c1", "Potency": "inactive"},
      {"smiles": "O=C(Cc1ccc(F)cc1)N/N=C/c1ccc2c(c1)OCO2", "Potency": "inconclusive [activator, partial curve]"},
      {"smiles": "Cc1cccc2sc(NC(=O)CNS(=O)(=O)c3ccc(Br)s3)nc12", "Potency": "inactive"},
      {"smiles": "COc1ccc(Nc2nc(N)nc(CSC(=S)N3CCOCC3)n2)cc1", "Potency": "inconclusive [activator, single point]"},
      {"smiles": "CSc1nc2ccc(NC(=O)c3ccc(F)c(F)c3)cc2s1", "Potency": "inconclusive [activator, single point]"},
      {"smiles": "O=C(CSCc1c(F)cccc1F)Nc1ccccc1", "Potency": "inconclusive [activator, partial curve]"},
      {"smiles": "O=C(Nc1ccccc1Cl)c1ccc(-c2ccccn2)s1", "Potency": "active: 2 µM"},
      {"smiles": "CCOc1ccccc1/C=C(\\C#N)C(=O)Nc1cccc(C(=O)O)c1", "Potency": "inconclusive [activator, partial curve]"},
      {"smiles": "Cc1ccccc1NC(=O)CSc1ccc(-c2cccnc2)nn1", "Potency": "inconclusive [activator, single point]"},
      {"smiles": "CCCCOc1ccc(C(=O)NNC(=O)C2C3CCC(C3)C2C(=O)O)cc1", "note": "(stereo unspecified)", "Potency": "inconclusive [activator, single point]"},
      {"smiles": "CC(O)CN=c1cc(-c2ccccc2)oc2ccc(Cl)cc12", "note": "(stereo unspecified)", "Potency": "inconclusive [activator, single point]"},
      {"smiles": "Cc1ccccc1OCC(O)CN1C(=O)c2ccccc2C1=O", "note": "(stereo unspecified)", "Potency": "inactive"},
      {"smiles": "COc1ccccc1-c1cc(C(=O)Nc2cccnc2)no1", "Potency": "inconclusive [activator, single point]"},
      {"smiles": "COc1nc(C)ccc1-c1noc(-c2ccncc2)n1", "Potency": "inconclusive [activator, partial curve]"},
      {"smiles": "Cc1ccc(C(=O)NC2CCCCC2)cc1", "Potency": "active: 2.82 µM"},
      {"smiles": "CC1CCN(C(=O)C(=O)Nc2sc3c(c2C(N)=O)CC(C)(C)OC3)CC1", "Potency": "inactive"},
      {"smiles": "O=C(Nc1nc2ccccc2[nH]1)c1cccc(F)c1", "Potency": "inconclusive [activator, single point]"},
      {"smiles": "Cn1cc(SCC(=O)Nc2nccs2)c2ccccc21", "Potency": "inconclusive [activator, partial curve]"},
      {"smiles": "O=C(O)/C(=C\\C(=O)c1ccccc1)Nc1ccccc1", "Potency": "inconclusive [activator, partial curve]"},
      {"smiles": "CN(C)c1ccc(C(=O)OCC(=O)NCCNC(=O)COC(=O)c2ccc(N(C)C)cc2)cc1", "Potency": "active: 3.98 µM"},
      {"smiles": "CNc1ncc(C(=O)c2ccc(F)cc2)s1", "Potency": "inconclusive [activator, partial curve]"},
      {"smiles": "Cc1nc(-c2ccc(Cl)cc2)sc1C1(C)CC(c2cccnc2)=NO1", "note": "(stereo unspecified)", "Potency": "inconclusive [activator, single point]"},
      {"smiles": "O=CNn1cnc2c(oc3nc(-c4ccccc4)cc(-c4ccco4)c32)c1=O", "Potency": "inactive"},
      {"smiles": "COc1cccc(N2CCN(C(=O)c3ccc4nc(N5CCC(C)CC5)sc4c3)CC2)c1", "Potency": "inconclusive [activator, partial curve]"},
      {"smiles": "c1ccc(Oc2nc(N3CCOCC3)nc(N3CCOCC3)n2)cc1", "Potency": "inactive"},
      {"smiles": "CC(C)n1cnc2c(NCc3ccc(S(N)(=O)=O)cc3)nc(NCc3ccc(S(N)(=O)=O)cc3)nc21", "Potency": "inconclusive [activator, single point]"},
      {"smiles": "O=C(Nc1ccccc1)C(=O)c1c[nH]c2ccccc12", "Potency": "active: 3.55 µM"},
      {"smiles": "CCCNC(=O)CN1C(=O)COc2ccc(S(=O)(=O)N3CCCCCC3)cc21", "Potency": "inactive"},
      {"smiles": "C(=N\\N1CCN(Cc2ccccc2)CC1)/c1cccs1", "Potency": "inactive"},
      {"smiles": "CCC(C)c1ccc(Nc2ncccc2C#N)cc1", "note": "(stereo unspecified)", "Potency": "inconclusive [activator, partial curve]"},
      {"smiles": "CC(C)(C)c1csc(NNC(=O)c2ccc(Cl)cc2)n1", "Potency": "inconclusive [activator, single point]"},
      {"smiles": "Cc1cc(-c2cccc([N+](=O)[O-])c2)nc2ccc3ccccc3c12", "Potency": "inconclusive [activator, single point]"},
      {"smiles": "Cc1cccc(-n2c(C)cc(/C=N\\NC(=O)c3cccs3)c2C)c1", "Potency": "inconclusive [activator, partial curve]"},
      {"smiles": "Cc1ccsc1C1NC(=O)c2c(sc3c2CCCC3)N1", "note": "(stereo unspecified)", "Potency": "inconclusive [activator, single point]"},
      {"smiles": "Cc1ccc2nc3ccc(N4CCCC4)nn3c(=O)c2c1", "Potency": "active: 2.24 µM"},
      {"smiles": "Nc1c(Cl)ncnc1N/N=C/c1cccc(O)c1", "Potency": "inactive"},
      {"smiles": "CC(C)c1ccc(CNc2ccc([N+](=O)[O-])cn2)cc1", "Potency": "inconclusive [activator, partial curve]"},
      {"smiles": "Cc1c(NC(=O)c2ccc(-c3ccccc3)cc2)cccc1C(=O)O", "Potency": "inconclusive [activator, partial curve, poor fit]"},
      {"smiles": "COC(=O)CCC(=O)NC(=S)Nc1cc(Cl)ccc1Cl", "Potency": "inactive"},
      {"smiles": "COc1ccc(NC(=O)COC(=O)c2cc(OC)c(OC)c(OC)c2)c([N+](=O)[O-])c1", "Potency": "inactive"},
      {"smiles": "CS(=O)(=O)N(CC(=O)NC1CC2CCC1C2)c1ccc(Oc2ccccc2)cc1", "note": "(stereo unspecified)", "Potency": "inactive"},
      {"smiles": "CCOCC(=O)Nc1nc2ccc(C)cc2s1", "Potency": "inconclusive [activator, partial curve]"},
      {"smiles": "O=C(Nc1nc2c(F)cc(F)cc2s1)C1CC1", "Potency": "inconclusive [activator, partial curve]"},
      {"smiles": "Cc1ccc2sc(-c3ccc(NC(=O)c4cc(-n5cnnc5)ccc4Cl)cc3)nc2c1", "Potency": "inconclusive [activator, partial curve]"},
      {"smiles": "COc1cccc(Nc2nc(CC(C)=O)ns2)c1", "Potency": "inconclusive [activator, partial curve]"},
      {"smiles": "Cc1nc2ccc(NC(=O)COc3ccccc3F)cc2s1", "Potency": "inactive"},
      {"smiles": "CC(=O)N1CCN(CC(=O)Nc2ccc([N+](=O)[O-])cc2Br)CC1", "Potency": "inactive"},
      {"smiles": "N/C(=N\\NC(=O)c1ccc(Cl)cc1)c1cnccn1", "Potency": "inconclusive [activator, partial curve]"},
      {"smiles": "N#Cc1cc(C(=O)c2cc(Cl)ccc2O)cn(CC2CCCO2)c1=O", "note": "(stereo unspecified)", "Potency": "inactive"},
      {"smiles": "CC(=O)Nc1nc2cc3c(cc2s1)OCO3", "Potency": "inconclusive [activator, partial curve]"},
      {"smiles": "COc1ccc(C(=O)NC2CC2)cc1OC1CCN(Cc2ccc(NC(C)=O)cc2)CC1", "Potency": "inactive"},
      {"smiles": "COc1cc(SC)ccc1C(=O)Nc1ccc2ncccc2c1", "Potency": "active: 1.26 µM"},
      {"smiles": "CN(N=Nc1cccc([N+](=O)[O-])c1)c1ccccc1", "Potency": "inconclusive [activator, single point]"},
      {"smiles": "O=C(c1ccc2ccccc2c1)N1CCN(Cc2ccccc2)CC1", "Potency": "inconclusive [activator, partial curve]"},
      {"smiles": "O=C(Nc1ccc2oc(-c3cccnc3)nc2c1)c1ccco1", "Potency": "inconclusive [activator, single point]"},
      {"smiles": "CCOC(=O)c1ccc(NC(=O)c2c(O)c3ccccc3n(C)c2=O)cc1", "Potency": "inconclusive [activator, partial curve]"},
      {"smiles": "CCCc1cc(C(=O)Nc2ccc(C(=O)c3ccc(C)cc3)cc2)n(C)n1", "Potency": "inactive"},
      {"smiles": "COc1cc(CN2CCC(C(=O)NCCC(C)C)CC2)ccc1OCc1ccccc1", "Potency": "inconclusive [activator, partial curve]"}
    ]}
  ]
}
